Data taken from PubChem BioAssay AID1745853 (National Center for Advancing Translational Sciences (NCATS), 2022).
The other results are listed elsewhere or left out. The main result of the screen is listed elsewhere. These columns were measured beside it and carry no call.

Assays:
Experiment in all cases: Primary Screen for Target Class Profiling of Small Molecule Inhibitors of Methyltransferases
[1] = biological target: Glycine N-methyltransferase (Homo sapiens) (UniProt Q14749); settings: purified enzyme, MTase-Glo SAH luminescence; measured here: GNMT inhibition; at 40 µM; stronger effect = lower value
Outline: (§1)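 Each enzyme was assayed with SAM and its substrate. SAH formation detected by MTase-Glo luminescence; single-point 40 uM screen[…].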

[2] = biological target: Guanidinoacetate N-methyltransferase (Homo sapiens) (UniProt Q14353); settings: purified enzyme, MTase-Glo SAH luminescence; measured here: GAMT inhibition; at 40 µM; stronger effect = lower value
Outline: as §1

[3] = biological target: Histamine N-methyltransferase (Homo sapiens) (UniProt P50135); settings: purified enzyme, MTase-Glo SAH luminescence; measured here: HNMT inhibition; at 40 µM; stronger effect = lower value
Outline: as §1

[4] = biological target: Nicotinamide N-methyltransferase (Homo sapiens) (UniProt P40261); settings: purified enzyme, MTase-Glo SAH luminescence; measured here: NNMT inhibition; at 40 µM; stronger effect = lower value
Outline: as §1

[5] = biological target: Phenylethanolamine N-methyltransferase (Homo sapiens) (UniProt P11086); settings: purified enzyme, MTase-Glo SAH luminescence; measured here: PNMT inhibition; at 40 µM; stronger effect = lower value
Outline: as §1
% is scaled to controls: 0 for no effect and ±100 for the full control effect.

Compound | activity change, negative = inhibition [1] | activity change, negative = inhibition [2] | activity change, negative = inhibition [3] | activity change, negative = inhibition [4] | activity change, negative = inhibition [5]
CN1C(=O)c2cc(C(=O)N3CCN(c4ccccc4F)CC3)nn2CC1(C)C(=O)NC1CCCCC1 (stereo not given) | 4.43% | 3.39% | 9.69% | 6.46% | 1.76%
O=c1c2ccccc2n2c(-c3ccc(Cl)cc3)nnc2n1CCc1ccccc1 | -8.76% | 2.43% | -5.02% | -4.82% | -8.74%
Cc1ccccc1N(C)C1CN(Cc2ccc(C#N)cc2)C1 | -6.28% | -0.02% | -13.6% | -18.1% | -10.7%
O=C(N[C@H](c1ccccn1)C1CC(O)C1)c1ccc2c(c1)ncn2CCO (stereo not given in full) | -1.74% | -7.25% | -4.67% | -3.53% | 304%
CCc1cc2c(cc3n2CC(C)(C(=O)NC2CCC(C)CC2)N(c2cccc(Cl)c2C)C3=O)s1 (stereo not given) | 2.93% | 4.43% | -0.489% | 4.58% | -0.429%
O=C(NCC(F)F)C1CCCN1C(=O)c1cccc(-c2ccccn2)c1 (stereo not given) | -2.49% | -3.87% | -0.865% | -3.21% | 2.86%
C=CCOc1cccc(-c2nc(C(=O)NCc3cccc(F)c3)cs2)c1 | -2.67% | 0.907% | 0.968% | -3.05% | -2.46%
CCOc1ccc(NC(=O)c2cc3n(n2)CC(C)(C(=O)NC2CCCC2)N(CC)C3=O)cc1 (stereo not given) | 1.34% | 0.587% | -6.45% | 5.06% | 1.23%
Cc1nc2c3ccccc3n3c(CCCC(=O)NCCc4ccc(Cl)cc4)nnc3n2n1 | -12.2% | 3.37% | -0.071% | 7.49% | -4.62%
CCc1cn(C[C@H](NC(=O)COC)C(=O)O)c(=O)[nH]c1=O | -2.68% | -6.87% | -2.74% | -5.89% | -0.355%
C[C@@H]1C(=O)NC2=Nc3cccc(Cl)c3CN21 | 2.44% | 13.2% | 9.26% | -3.18% | -1.12%
COCc1c(Cl)ccc2c1CC[C@H]2c1ncc[nH]1 | -4.37% | -9.06% | -18.2% | -21% | -1.89%
CC1(C(=O)NC2CCCCC2)Cn2c(nc3ccccc32)C(=O)N1Cc1ccc(Cl)cc1 (stereo not given) | -3.52% | 0% | 6.19% | 1.24% | 0.356%
COc1ccc(NC(=O)CSc2nnc3[nH]c(=O)c(C)nn23)cc1OC | 9.06% | 0% | 7.61% | -0.583% | -20.2%
COc1ccccc1CNC(=O)C1(C)Cn2c(cc3ccccc32)C(=O)N1CCc1ccc(C)cc1 (stereo not given) | -2.94% | 3.65% | -0.286% | 3.66% | -2.34%
Cc1c(CN(C)C(=O)/C=C/c2cnc3c(c2)CCC(=O)N3)oc2ccccc12 | -2.34% | 1.07% | 12.2% | -18.4% | 3.6%
CC(C)c1ccc(-c2cc3n(n2)CC(C)(C(=O)NC2CCCCC2)N(C2CCCC2)C3=O)cc1 (stereo not given) | 3.25% | 0% | 7.15% | 7.62% | 2.69%
